According to patent publication US20190144558A1:
Positions count from the first letter of the chain named.

B1: Antibody 66 (antibody, human IgG1, kappa)
heavy: EVQLVESGGGLVQPGGSLRLSCAASGFTFSDHYMDWVRQAPGKGLEWVGRTRNKASSYTTEYAASVKGRFTISRDDSKNSLYLQMNSLKTEDTAVYYCAREPKYWIDFDLWGRGTLVTVSS[sequence of human IgG1 constant region not given]
light: [sequence of about 100 residues not given][sequence of about 120 residues not given]
B2: Antibody 69 (antibody, human IgG1, kappa)
heavy: B1 heavy with S30V, Y33D, A55L, S56G
light: [sequence of about 100 residues not given][sequence of about 120 residues not given]
B3: Antibody 67 (antibody, human IgG1, kappa)
heavy: B1 heavy with H32A, Y33D, S56G
light: [sequence of about 100 residues not given][sequence of about 120 residues not given]
B4: Antibody 68 (antibody, human IgG1, kappa)
heavy: B1 heavy with G16R, A23T, Y33D, D35N, K54A, S56G
light: [sequence of about 100 residues not given][sequence of about 120 residues not given]
B5: Antibody 54 (antibody, human IgG1, kappa)
heavy: QVQLVQSGAEVKKPGSSVKVSCKASGGTFSSYAISWVRQAPGQGLEWMGGIIPIFGTANYAQKFQGRVTITADESTSTAYMELSSLRSEDTAVYYCARGGLDTDEFDLWGRGTLVTVSS[sequence of human IgG1 constant region not given]
light: DIQMTQSPSSLSASVGDRVTITCRASQSINSYLNWYQQKPGKAPKLLIYAASSLQSGVPSRFSGSGSGTDFTLTISSLQPEDFATYYCQQGVSDITFGGGTKVEIKRTVAAPSVFIFPPSDEQLKSGTASVVCLLNNFYPREAKVQWKVDNALQSGNSQESVTEQDSKDSTYSLSSTLTLSKADYEKHKVYACEVTHQGLSSPVTKSFNRGEC
B6: Antibody 56 (antibody, human IgG1, kappa)
heavy: B5 heavy with S31L, I54A
light: B5 light
B7: Antibody 55 (antibody, human IgG1, kappa)
heavy: B5 heavy with S30R, S31I, I54D, T57V
light: B5 light
B8: Antibody 57 (antibody, human IgG1, kappa)
heavy: B5 heavy with S31L, I54H, T57L
light: B5 light

Target: human CD117 on CD117 expressing cells (Kasumi-1 cells; primary human CD34+ bone marrow cells) (human), P10721
Assay: cell-based or functional assay

Binder	AUC Kasumi-1 Killing (AUC hIgG1 - AUC MAC ID#); IgG pre-incubated with anti-human Fab-saporin, Celltiter Glo
B1	135000
B2	40000
B3	156000
B4	14400
B5	155000
B6	193000
B7	226000
B8	157000
